The values that follow come from PubChem BioAssay AID1745853 (National Center for Advancing Translational Sciences (NCATS), 2022).

The list shows a part of the results. These are further read-outs of the screen, such as a control signal, another cell line or another target. No call is given for them.

Test in all cases: Primary Screen for Target Class Profiling of Small Molecule Inhibitors of Methyltransferases
Assay [1] deals with Glycine N-methyltransferase (Homo sapiens) (UniProt Q14749). The note with it: purified enzyme, MTase-Glo SAH luminescence; measured here: GNMT inhibition; at 40 µM; stronger effect = lower value. Put shortly: (§1)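 Each enzyme was assayed with SAM and its substrate. SAH formation detected by MTase-Glo luminescence; single-point 40 uM screen[…].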
In assay [2] the target is Guanidinoacetate N-methyltransferase (Homo sapiens) (UniProt Q14353). The note with it: purified enzyme, MTase-Glo SAH luminescence; measured here: GAMT inhibition; at 40 µM; stronger effect = lower value. Put shortly:
as §1

In assay [3] the target is Histamine N-methyltransferase (Homo sapiens) (UniProt P50135). The conditions noted are these: purified enzyme, MTase-Glo SAH luminescence; measured here: HNMT inhibition; at 40 µM; stronger effect = lower value. A digest of the protocol: as §1
Assay [4] addresses Nicotinamide N-methyltransferase (Homo sapiens) (UniProt P40261). The conditions noted are these: purified enzyme, MTase-Glo SAH luminescence; measured here: NNMT inhibition; at 40 µM; stronger effect = lower value. A digest of the protocol:
as §1

Assay [5] addresses Phenylethanolamine N-methyltransferase (Homo sapiens) (UniProt P11086). The note with it: purified enzyme, MTase-Glo SAH luminescence; measured here: PNMT inhibition; at 40 µM; stronger effect = lower value. Put shortly:
as §1
On the % scale 0 is the no-effect control and ±100 the full control effect.

For the molecule `C=C1C(O)CC2C(C(=O)O)=COC(O[C@@H]3O[C@H](COC(=O)c4ccc(O)cc4)[C@@H](O)[C@H](O)[C@H]3O)C12` (stereo not given in full), the activity change, negative = inhibition in assay [1] was 0%; in assay [2], 5.21%; in assay [3] it was 4.14%; in assay [4], -7.63%; in assay [5] it was 6.18%.
In the same order, the values of `COC1CCCN(c2cc(-c3cccnc3)nc3c(C)noc23)C1` (stereo not given) are -8.11%, -2.29%, -8.62%, -16.7% and 7.47%.
Take `CCn1cc(C(=O)N2C[C@H](CO)C[C@H](CN3CCCC3)C2)c(C)n1`: the activity change, negative = inhibition is -1.01% in assay [1]; 1.2% in assay [2]; -1.44% in assay [3]; -0.884% in assay [4]; -1.41% in assay [5].
Taken in the same sequence, the figures for `CC1(C(=O)NC2CCCCC2)Cn2c(ccc2-c2ccco2)C(=O)N1Cc1cccc(F)c1` (stereo not given) were -0.273%, 0%, 8.46%, 5.3% and 2.53%.
Take `CC(C)OCCCNC(=O)C1(C)Cn2c(cc3ccccc32)C(=O)N1CCc1cccs1` (stereo not given): the activity change, negative = inhibition in assay [1] stood at 6.74%; in assay [2], 1.19%; in assay [3], 6.97%; in assay [4] it was 6.63%; in assay [5], 2.44%.
Taken in the same sequence, the figures for `Cc1ccc2c(cnn2C(=O)CCC(=O)N2CCN(C)CC2)c1` were -7.59%, 3.14%, -1.04%, -7.56% and -3.02%.
In the same order, the values of `CCC(C)NC(=O)c1ccc2c(=O)n(Cc3ccccc3)c3nn(CC(=O)NC4CCCC4)c(=O)n3c2c1` (stereo not given) are 5.69%, 0%, 10%, 0.208% and 3.34%.
As to `CCCN1C(=O)c2cc(-c3ccc(C(C)C)cc3)nn2CC1(C)C(=O)NC1CCCCC1` (stereo not given), the activity change, negative = inhibition is -4.36% in assay [1]; 1.12% in assay [2]; 4.3% in assay [3]; 3.52% in assay [4]; -0.167% in assay [5].
For `COc1cc2ncnc(Nc3cc(Br)c(O)c(Br)c3)c2cc1OC`, the activity change, negative = inhibition was -13.1% in assay [1]; -2.44% in assay [2]; -23.2% in assay [3]; -18.2% in assay [4]; -4.21% in assay [5].
On to `COc1ccc(-c2noc(C(=O)NC(C)C)c2[C@H](C)O)cc1`, for which the activity change, negative = inhibition in assay [1] is -2.94%; in assay [2], -1.76%; in assay [3], -0.003%; in assay [4] it was -4.82%; in assay [5] it was -5.18%.
Taken in the same sequence, the figures for `CCCn1c(=O)c2ccccc2n2c(=O)n(CC(=O)Nc3ccc(OC)cc3)nc12` were -2.2%, 0.542%, 3.96%, -1.05% and 1.47%.
Take `CCOC(=O)c1cc2n(n1)CC(C)(C(=O)NCCC(C)C)N(c1cccc(Cl)c1)C2=O` (stereo not given): the activity change, negative = inhibition stood at 5.7% in assay [1]; 4.04% in assay [2]; 5.43% in assay [3]; 10.1% in assay [4]; 2.13% in assay [5].
As for `CC(=O)NCc1cccc(OC[C@@H](O)CNCCc2ccc(NS(=O)(=O)c3ccccc3)cc2)c1`, the activity change, negative = inhibition in assay [1] is -2.8%; in assay [2], 0.331%; in assay [3], -2.86%; in assay [4], -16.1%; in assay [5], 1.57%.
Regarding `OCC1CN(c2ncccn2)CC12CCN(Cc1ccsc1)CC2` (stereo not given), the activity change, negative = inhibition in assay [1] is -2.88%; in assay [2] it was -4.96%; in assay [3], -9.23%; in assay [4], -7.43%; in assay [5] it was 0.321%.
In the same order, the values of `Cc1ccc(Cn2c(=O)c3ccccc3n3c(SCc4ccccc4)nnc23)cc1` are 0.322%, 6.78%, 1.53%, -2.81% and -1.63%.
Taken in the same sequence, the figures for `COc1ccc(C(=O)N2CC(=O)N(c3ccc(C)cc3)CC2C)c(OC)n1` (stereo not given) were -0.996%, -0.856%, -0.488%, 2.66% and 0.306%.
Taken in the same sequence, the figures for `O=C1CN(Cc2c(F)cccc2Cl)S(=O)(=O)c2ccccc2N1Cc1ccccc1F` were 15.2%, 0%, 12.5%, 6.94% and 8.67%.
